Holding throughout (experiment): pull-down; only the target purified
Test [1] has as its target full-length GST–M1 fusion protein (influenza A virus A/PR/8/34 (PR8)) (UniProt P03485).
In test [2] the target is GST–M1 middle domain fusion protein (influenza A virus A/PR/8/34 (PR8)) (UniProt P03485).
For test [3], the target named is GST–M1 N+M domain fusion protein (influenza A virus A/PR/8/34 (PR8)) (UniProt P03485).
Test [4] has as its target GST–M1 M+C domain fusion protein (influenza A virus A/PR/8/34 (PR8)) (UniProt P03485).
Test [5] concerns the target GST–NP fusion protein (influenza A virus A/PR/8/34 (PR8)) (UniProt P03466).

The chains behind the UniProt entries cited, without tags or fusion partners.
UniProt P03466: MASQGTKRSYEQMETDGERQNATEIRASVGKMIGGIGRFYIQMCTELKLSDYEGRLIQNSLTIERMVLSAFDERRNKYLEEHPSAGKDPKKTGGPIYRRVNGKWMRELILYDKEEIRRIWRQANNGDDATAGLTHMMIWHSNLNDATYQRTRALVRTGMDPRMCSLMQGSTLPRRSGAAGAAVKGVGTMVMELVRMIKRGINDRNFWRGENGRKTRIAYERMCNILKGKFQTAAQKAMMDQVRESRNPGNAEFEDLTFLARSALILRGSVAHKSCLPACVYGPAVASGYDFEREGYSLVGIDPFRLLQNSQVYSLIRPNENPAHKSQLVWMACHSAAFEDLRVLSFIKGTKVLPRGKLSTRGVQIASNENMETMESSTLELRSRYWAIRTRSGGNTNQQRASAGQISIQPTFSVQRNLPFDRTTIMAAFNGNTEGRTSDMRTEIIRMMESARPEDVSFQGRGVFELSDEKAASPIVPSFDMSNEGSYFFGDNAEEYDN

These are yes or no findings as the source states them, for the method shown. Binding seen in cells or lysates may run through a third protein. Some binding calls cover weakened binding; strength is not graded here.

Six substances from paper PMC2884976 (The Journal of General Virology, 2007) can be followed below.

In the case of “[35S]methionine-radiolabelled, in vitro-translated NP (from UniProt P03466 1-498)”, the binding result in test [1], in test [2], in test [3] and in test [4] was “binds” throughout.

As to “in vitro-translated M1 M+C fragment (from UniProt P03485 88-252) (domain or fragment)”, in test [5], the binding entry is given as “binds”.

“in vitro-translated M1 middle domain (from UniProt P03485 88-165) (domain or fragment)”: the binding entry in test [5] is “binds”.

Regarding “in vitro-translated M1 N+L polypeptide (from UniProt P03485 1-90) (domain or fragment)”, the binding result in test [5] is “no binding”.

For “untagged WT radiolabelled M1, in vitro translated (from UniProt P03485 1-252)”, the binding entry in test [5] is “binds”.

Consider “in vitro-translated M1 N domain (from UniProt P03485 1-75) (domain or fragment)”, for which the binding result in test [5] was “no binding”.
